Test results published in publication PMC2191977 (The Journal of Experimental Medicine, 1995).

Key:
[1] = molecular target: T1, B7 S177A (mouse, UniProt Q00609 38-306, S177A); experiment: flow cytometry on cells
T1 sequence (looked up): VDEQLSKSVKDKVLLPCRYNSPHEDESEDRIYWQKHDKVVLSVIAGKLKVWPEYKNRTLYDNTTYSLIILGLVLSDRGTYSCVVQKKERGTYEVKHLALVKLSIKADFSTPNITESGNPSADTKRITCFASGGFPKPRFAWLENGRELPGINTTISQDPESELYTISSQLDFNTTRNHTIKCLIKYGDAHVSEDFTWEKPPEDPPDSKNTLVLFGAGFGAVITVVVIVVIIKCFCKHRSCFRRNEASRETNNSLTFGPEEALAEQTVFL

[2] = molecular target: T2, B7 QD/LE (Q194L, D195E) (mouse, UniProt Q00609 38-306, Q194D195>LE); experiment: flow cytometry on cells
T2 sequence (looked up): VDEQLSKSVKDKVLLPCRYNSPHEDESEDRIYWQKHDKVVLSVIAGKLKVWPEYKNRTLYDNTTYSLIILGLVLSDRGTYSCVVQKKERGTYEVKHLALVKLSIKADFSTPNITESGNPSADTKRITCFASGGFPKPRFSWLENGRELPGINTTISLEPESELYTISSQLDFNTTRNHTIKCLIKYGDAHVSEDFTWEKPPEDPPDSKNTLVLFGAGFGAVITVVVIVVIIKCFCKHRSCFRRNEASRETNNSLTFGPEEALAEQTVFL

% wild-type B7 binding (normalised to anti-B7 mAb 10.16A.1) [1]: 56%
MF (mean fluorescence, control subtracted) [1]: 476 MF
% wild-type B7 binding (normalised to anti-B7 mAb 10.16A.1) [2]: 26%
MF (mean fluorescence, control subtracted) [2]: 103 MF
B1: CTLA4Ig (Fc fusion)
chain: not shown
